{"source": "the antibiotic and cytotoxicity screens of Wong et al. (2023)", "key": {"[1]": {"system": "HSkMC (human skeletal muscle cells)", "test": "cytotoxicity call (relative viability < 0.9)", "conditions": "10 µM"}, "[2]": {"system": "HepG2", "test": "cytotoxicity call (relative viability < 0.9)", "conditions": "10 µM"}, "[3]": {"system": "S. aureus RN4220", "test": "growth inhibition call (relative growth <= 0.2)", "conditions": "50 µM"}}, "note": "The list shows a part of the results.", "data": [{"compound": "C[C@@H]1CN([C@@H](C)CO)C(=O)c2cc(NC(=O)Cn3cnnn3)ccc2O[C@@H]1CN(C)C(=O)Nc1ccc(F)cc1", "values": [{"measurement": "cytotoxicity call", "setting": "[1]", "value": "inactive"}, {"measurement": "cytotoxicity call", "setting": "[2]", "value": "inactive"}, {"measurement": "growth inhibition call", "setting": "[3]", "value": "inactive"}]}, {"compound": "Cc1ccc(S(=O)(=O)N[C@H](C(=O)NCCn2cc(C(=O)NO)nn2)C(C)C)cc1", "values": [{"measurement": "cytotoxicity call", "setting": "[1]", "value": "inactive"}, {"measurement": "cytotoxicity call", "setting": "[2]", "value": "inactive"}, {"measurement": "growth inhibition call", "setting": "[3]", "value": "inactive"}]}, {"compound": "COCCNC(=O)C[C@@H]1C[C@@H]2c3cc(NC(=O)COC)ccc3O[C@@H]2[C@@H](CO)O1", "values": [{"measurement": "cytotoxicity call", "setting": "[1]", "value": "inactive"}, {"measurement": "cytotoxicity call", "setting": "[2]", "value": "inactive"}, {"measurement": "growth inhibition call", "setting": "[3]", "value": "inactive"}]}, {"compound": "O=CC(O)C(O)C(O)CO", "note": "(stereo not drawn)", "values": [{"measurement": "cytotoxicity call", "setting": "[1]", "value": "inactive"}, {"measurement": "cytotoxicity call", "setting": "[2]", "value": "inactive"}, {"measurement": "growth inhibition call", "setting": "[3]", "value": "inactive"}]}, {"compound": "CN1CCN(C(=O)C[C@H]2CC[C@@H]3[C@H](COC[C@H](O)CN3C(=O)Nc3ccc4c(c3)OCO4)O2)CC1", "values": [{"measurement": "cytotoxicity call", "setting": "[1]", "value": "inactive"}, {"measurement": "cytotoxicity call", "setting": "[2]", "value": "inactive"}, {"measurement": "growth inhibition call", "setting": "[3]", "value": "inactive"}]}, {"compound": "CCCNC(=O)N1C[C@H](O)COC[C@@H]2O[C@H](CC(=O)N3CCOCC3)CC[C@H]21", "values": [{"measurement": "cytotoxicity call", "setting": "[1]", "value": "inactive"}, {"measurement": "cytotoxicity call", "setting": "[2]", "value": "inactive"}, {"measurement": "growth inhibition call", "setting": "[3]", "value": "inactive"}]}, {"compound": "CO[C@@H]1[C@@H](O[C@@H]2O[C@H](C)[C@@H](O[C@H]3C[C@@](C)(O)[C@@H](OC(=O)CC(C)C)[C@H](C)O3)[C@H](N(C)C)[C@H]2O)[C@@H](CC=O)C[C@@H](C)[C@@H](O)/C=C\\C=C/C[C@@H](C)OC(=O)C[C@H]1OC(C)=O", "values": [{"measurement": "cytotoxicity call", "setting": "[1]", "value": "inactive"}, {"measurement": "cytotoxicity call", "setting": "[2]", "value": "inactive"}, {"measurement": "growth inhibition call", "setting": "[3]", "value": "active"}]}, {"compound": "COc1ccc2c3c(n(c2c1)C)[C@@H](CO)N(C[C@]13CCN(CC1)Cc1ccccc1F)C(=O)Nc1ccc(cc1)F", "values": [{"measurement": "cytotoxicity call", "setting": "[1]", "value": "inactive"}, {"measurement": "cytotoxicity call", "setting": "[2]", "value": "active"}, {"measurement": "growth inhibition call", "setting": "[3]", "value": "inactive"}]}, {"compound": "COc1ccc(S(=O)(=O)Nc2cccc3c2O[C@H](CN(C)S(=O)(=O)c2cn(C)cn2)[C@H](C)CN([C@@H](C)CO)C3=O)cc1", "values": [{"measurement": "cytotoxicity call", "setting": "[1]", "value": "inactive"}, {"measurement": "cytotoxicity call", "setting": "[2]", "value": "inactive"}, {"measurement": "growth inhibition call", "setting": "[3]", "value": "inactive"}]}, {"compound": "COc1ccc(NC(=O)N(C)C[C@H]2OCCCC[C@H](C)Oc3ccc(NC(=O)NC(C)C)cc3C(=O)N([C@H](C)CO)C[C@@H]2C)cc1", "values": [{"measurement": "cytotoxicity call", "setting": "[1]", "value": "inactive"}, {"measurement": "cytotoxicity call", "setting": "[2]", "value": "inactive"}, {"measurement": "growth inhibition call", "setting": "[3]", "value": "inactive"}]}, {"compound": "C[C@H](CO)N1C[C@H](C)[C@H](CN(C)C(=O)c2ccccc2)OCCCC[C@H](C)Oc2ccc(NC(=O)Nc3ccc(F)cc3)cc2C1=O", "values": [{"measurement": "cytotoxicity call", "setting": "[1]", "value": "inactive"}, {"measurement": "cytotoxicity call", "setting": "[2]", "value": "inactive"}, {"measurement": "growth inhibition call", "setting": "[3]", "value": "inactive"}]}]}
